# From PubChem BioAssay (Tox21)
# Inconclusive results, whose numbers are uncertain, are shown with a selection of clear calls. Potencies beside an inconclusive call are fits to weak or partial responses and may not hold up. Activity calls are given as the source filed them. The call rests on the fitted dose curve; in most records, active means well fitted activation curve with a large enough effect in the repeat runs; inconclusive means weak or mixed curves, or effect the other way; inactive means no such curve, though single readings can be large or run the other way.
# Test: qHTS assay to identify small molecule agonists of the retinoic acid receptor (RAR) signaling pathway (AID 1159553)
# Conditions: C3RL4 RARE luciferase reporter, agonist, 6 h; activation: at 73.3 µM (top of the series) unless noted
# Method in brief: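 Cell line C3RL4, RARE luciferase reporter. Treatment: compounds in DMSO, 6 hr, 37 C, 5% CO2, after overnight plating. Detection: luminescence, 30 min RT after reagent.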
# On the % scale 0 is the no-effect control and ±100 the full control effect; potency means the concentration at half of the fitted maximal effect; tags describe the fitted curve by direction and shape.
Structure (SMILES),Potency,activation
CC(C)c1ccc2oc3nc(N)c(C(=O)O)cc3c(=O)c2c1,active: 2.11 µM,
N#CCC(=O)O,"inconclusive: 68.6 µM [activator, partial curve, poor fit]",
Nc1ccc2ccccc2c1S(=O)(=O)O,active: 24.8 µM,
CCCCCCc1ccc(-c2ccc(C#N)cc2)cc1,inactive,
CC(C)(c1ccc(Oc2ccc3c(c2)C(=O)OC3=O)cc1)c1ccc(Oc2ccc3c(c2)C(=O)OC3=O)cc1,inactive,
CN1C(=O)N(C)C(O)C1O (centres undefined),inactive,
O=C(O)c1ccccc1NCCc1ccccc1,active: 23.7 µM,
C[C@H](N)C(=O)N[C@@H](C)C(=O)NC1[C@H]2CN(c3nc4c(cc3F)c(=O)c(C(=O)O)cn4-c3ccc(F)cc3F)C[C@@H]12 (some centres undefined),"inconclusive: 10.6 µM [inhibitor, partial curve]",
CC1=NN(c2cc(S(=O)(=O)O)ccc2Cl)C(=O)C1N=Nc1ccccc1 (centres undefined),active: 68.6 µM,
Fc1c(F)c(F)c(Br)c(F)c1F,inactive,
C[C@H]1O[C@@H](n2cc(F)c(=O)[nH]c2=O)[C@H](O)[C@@H]1O,inactive,
CCOC(=O)c1ccc(C)cc1,inactive,
COc1cc2nc(N3CCN(C(=O)C4CCCO4)CC3)nc(N)c2cc1OC (centres undefined),inactive,
CCCCCC(=O)O,,inconclusive: -2.6% [phenotype inactive]
Cc1nc2ccccc2n1Cc1ccc(Cl)cc1,inconclusive: 33.5 µM [activator],
O=S(=O)(O)NC1CCCCC1,inactive,
CC(S)C(=O)NCC(=O)O (centres undefined),,inconclusive: 1.05% [phenotype inactive]
COC(=O)c1ccc(C)cc1C1=NC(C)(C(C)C)C(=O)N1 (centres undefined),inactive,
c1ccc(OCc2ccc(CCCN3CCOCC3)cc2)cc1,active: 13.3 µM,
O=C(OCCOCCOCCOC(=O)c1ccccc1)c1ccccc1,"inconclusive: 77 µM [activator, partial curve, poor fit]",

Structure (SMILES),Potency,activation
CC(C)C[C@H](NC(=O)OCC1c2ccccc2-c2ccccc21)C(=O)O,active: 1.72 µM,
CC(=O)NCCCS(=O)(=O)O,,inconclusive: 3.35% [phenotype inactive] [at 34.3 µM]
CCC(C)C(C)=O (centres undefined),inactive,
CCOC(=O)CC(=O)OCC,inactive,
C=Cc1ccc(C)cc1,,inconclusive: 0.896% [phenotype inactive] [at 94.8 µM]
CC(C)CCCCCOC(=O)CCCCC(=O)OCCCCCC(C)C,inactive,
O=C(O)c1cccnc1Nc1cccc(C(F)(F)F)c1,"inconclusive: 26.6 µM [activator, partial curve]",
CCCCCCCCCCCCC(=O)O,inactive,
CC(=O)OC/C=C(\C)CC/C=C(\C)CCC=C(C)C,"inconclusive: 77 µM [activator, single point]",
CC(C)OC(=O)CCCCC(=O)OC(C)C,"inconclusive: 54.6 µM [activator, partial curve]",
Cc1cccc(C)c1NC(=O)CN1CCCC1,inactive,
CCCCCOC(=O)c1ccc(O)cc1,active: 1.23 µM,
NNc1nnc(NN)c2ccccc12,inconclusive: 29.8 µM [activator],
OC[C@H](Cc1cccc(O)c1)[C@H](CO)Cc1cccc(O)c1,,inconclusive: 0.41% [phenotype inactive] [at 94.8 µM]
CC(C)(CCl)c1ccccc1,inconclusive: 74.2 µM [inhibitor],
CNC(=O)Nc1ccc(Cl)c(Cl)c1,,inconclusive: 5.02% [phenotype inactive]
CC(C)C(=O)O,,inconclusive: 5.46% [phenotype inactive]
CC(CCO)CC(C)(C)C (centres undefined),inactive,
CC(C)(C)c1ccc(OC(=O)c2ccccc2O)cc1,active: 1.09 µM,
